# Read-outs that look alike come from different tables or passages of the source.
# T1: FcγRIIb (The Tag-lite receptor carries a labelling tag with a terbium donor dye; its letters are not given in the patent and are left out.)
# T1 construct: also called FcγRIIb expressed on HEK293 cells
# T1 chain: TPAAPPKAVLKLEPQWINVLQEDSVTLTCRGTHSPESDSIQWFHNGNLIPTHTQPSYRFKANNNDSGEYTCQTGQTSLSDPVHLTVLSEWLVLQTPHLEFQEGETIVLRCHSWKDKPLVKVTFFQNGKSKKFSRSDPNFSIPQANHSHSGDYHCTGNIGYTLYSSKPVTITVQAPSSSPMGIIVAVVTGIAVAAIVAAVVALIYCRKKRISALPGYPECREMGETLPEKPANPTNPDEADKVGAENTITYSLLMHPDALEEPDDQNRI
# Columns and labels:
# [1] = target: T2, cynomolgus PD-1 expressed on cells (cynomolgus monkey, UniProt B0LAJ3 25-288); assay: cell-based or functional assay
# [2] = target: T3, human PD-1 expressed on cells (human, UniProt Q15116 partial chain); assay: flow cytometry on CHO cells expressing human PD-1, anti-human IgG Fc detection
# T3 construct: also called human PD-1-CHO cells; CHO cells expressing human PD-1
# [3] = target: T2, cynomolgus PD-1 expressed on cells; assay: flow cytometry on CHO cells expressing cynomolgus PD-1, anti-human IgG Fc detection
# [4] = target: T4, human PD-1 extracellular domain (residues 32-160), expressed in E. coli and refolded (human, UniProt Q15116 partial chain); assay: Biacore T200; antibody captured on Fc-specific anti-human IgG; human PD-1 (32-160) flowed at 100 nM to 200 pM
# T4 construct: also called PD1_002; internally produced human PD1 antigen
# [5] = target: T3, human PD-1 expressed on cells; assay: flow cytometry on CHO cells expressing human PD-1; detection with anti-human IgG Fc (PE); x axis 'Primary Ab conc (nM)' with log ticks -3 to 3
# [6] = target: T2, cynomolgus PD-1 expressed on cells; assay: flow cytometry on CHO cells expressing cynomolgus PD-1; detection with anti-human IgG Fc (PE); x axis 'Primary Ab conc (nM)' with log ticks -3 to 3
# [7] = target: T5, FcγRI expressed on cells (UniProt P12314); assay: FACS on FcγRI-CHO cells; detection with PE-conjugated F(ab')2 goat anti-human antibody; table row 'FcgR1'
# T5 construct: whole, on cells; In the HEK293 Tag-lite assay the receptor was prelabeled with a terbium donor dye; also called FcγRI-CHO; HEK293 cells expressing FcγRI
# [8] = target: T5, FcγRI expressed on cells; assay: Cisbio Tag-lite displacement (FRET) on HEK293 cells expressing terbium-labelled FcγRI; competitor human IgG-d2
# [9] = target: T4, human PD-1 extracellular domain …; assay: Biacore T200; antibody captured on Fc-specific anti-human IgG; human PD-1 (32-160) flowed at 100 nM to 200 pM; remark: listed apart in the source
# [10] = target: T1, FcγRIIb; assay: Cisbio Tag-lite displacement (FRET) on HEK293 cells expressing terbium-labelled FcγRIIb; competitor human IgG-d2
# [11] = target: T6, FcγRIIIa (V158) expressed on cells (UniProt P08637); assay: Cisbio Tag-lite displacement (FRET) on HEK293 cells expressing terbium-labelled FcγRIIIa (V158); competitor human IgG-d2
# T6 construct: whole, on cells; also called FcγRIIIaV158-CHO
# T6 sequence (P08637 17-254 F176V limits assumed): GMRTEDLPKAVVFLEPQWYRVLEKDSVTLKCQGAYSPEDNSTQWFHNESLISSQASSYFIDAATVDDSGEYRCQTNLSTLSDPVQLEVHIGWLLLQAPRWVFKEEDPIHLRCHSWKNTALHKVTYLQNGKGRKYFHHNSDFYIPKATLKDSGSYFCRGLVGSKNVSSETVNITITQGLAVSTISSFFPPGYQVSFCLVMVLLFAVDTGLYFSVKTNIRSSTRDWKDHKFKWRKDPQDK
# T2 sequence (B0LAJ3 entry or part of it limits assumed): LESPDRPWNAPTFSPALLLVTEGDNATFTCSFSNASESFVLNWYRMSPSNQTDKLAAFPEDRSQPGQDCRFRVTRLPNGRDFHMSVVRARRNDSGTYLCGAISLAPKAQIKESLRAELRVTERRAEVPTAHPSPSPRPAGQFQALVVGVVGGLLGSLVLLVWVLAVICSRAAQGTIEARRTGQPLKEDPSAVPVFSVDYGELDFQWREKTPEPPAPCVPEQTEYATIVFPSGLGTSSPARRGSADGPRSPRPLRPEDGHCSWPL
# T5 sequence (P12314 16-374 limits assumed): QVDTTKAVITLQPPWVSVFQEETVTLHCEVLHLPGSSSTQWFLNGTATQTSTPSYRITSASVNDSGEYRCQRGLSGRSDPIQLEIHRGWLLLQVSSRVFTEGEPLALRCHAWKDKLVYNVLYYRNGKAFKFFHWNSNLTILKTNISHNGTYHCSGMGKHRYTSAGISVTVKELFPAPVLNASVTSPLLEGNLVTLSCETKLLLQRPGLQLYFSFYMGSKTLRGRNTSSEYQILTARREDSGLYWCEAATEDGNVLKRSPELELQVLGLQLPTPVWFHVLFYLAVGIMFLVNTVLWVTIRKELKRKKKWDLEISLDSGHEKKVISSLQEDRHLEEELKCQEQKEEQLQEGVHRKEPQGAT
# T3 sequence (Q15116 25-198 limits assumed): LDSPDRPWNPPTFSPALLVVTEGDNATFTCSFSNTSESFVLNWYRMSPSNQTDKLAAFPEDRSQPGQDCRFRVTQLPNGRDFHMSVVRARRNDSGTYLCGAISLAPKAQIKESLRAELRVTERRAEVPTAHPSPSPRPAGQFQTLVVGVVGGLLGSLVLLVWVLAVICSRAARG
binder,measurement,setting,value
"PD1AB-6-IgG1 (antibody, also called IgG1_PD1AB-6; IgG1-PD1AB-6) heavy: EVQLVQSGAEVKKPGATVKISCKASGFNIKDTYMHWVQQAPGKGLEWMGRIDPANGDRKYDPKFQGRVTITADTSTDTAYMELSSLRSEDTAVYYCARSGPVYYYGSSYVMDYWGQGTTVTVSS[human IgG1 constant region not written out] light: DIVMTQSPDSLAVSLGERATINCKSGQSVLYSSNQKNFLAWYQQKPGQPPKLLIYWASTRESGVPDRFSGSGSGTDFTLTISSLQAEDVAVYYCHQYLYSWTFGQGTKLEIKRTVAAPSVFIFPPSDEQLKSGTASVVCLLNNFYPREAKVQWKVDNALQSGNSQESVTEQDSKDSTYSLSSTLTLSKADYEKHKVYACEVTHQGLSSPVTKSFNRGEC","IL-2 EC50 (nM), cynomolgus PBMC assay, NHP1",[1],0.28 nM
same,"IL-2 EC50 (nM), cynomolgus PBMC assay, NHP2",[1],4.9 nM
same,EC50,[2],0.4 nM
same,EC50,[3],0.8 nM
same,Kd,[4],~19 nM
same,LogEC50,[5],0.431 log nM
same,LogEC50,[6],0.806 log nM
"PD1AB-6-4P (antibody, human IgG4 S228P, kappa, IgG4 backbone with S228P; also called PD1AB-6IgG4P) heavy: EVQLVQSGAEVKKPGATVKISCKASGFNIKDTYMHWVQQAPGKGLEWMGRIDPANGDRKYDPKFQGRVTITADTSTDTAYMELSSLRSEDTAVYYCARSGPVYYYGSSYVMDYWGQGTTVTVSSASTKGPSVFPLAPCSRSTSESTAALGCLVKDYFPEPVTVSWNSGALTSGVHTFPAVLQSSGLYSLSSVVTVPSSSLGTKTYTCNVDHKPSNTKVDKRV[human IgG4 Fc with S228P L445P (EU numbers) not written out] light: DIVMTQSPDSLAVSLGERATINCKSGQSVLYSSNQKNFLAWYQQKPGQPPKLLIYWASTRESGVPDRFSGSGSGTDFTLTISSLQAEDVAVYYCHQYLYSWTFGQGTKLEIKRTVAAPSVFIFPPSDEQLKSGTASVVCLLNNFYPREAKVQWKVDNALQSGNSQESVTEQDSKDSTYSLSSTLTLSKADYEKHKVYACEVTHQGLSSPVTKSFNRGEC","IL-2 EC50 (nM), cynomolgus PBMC assay, NHP1",[1],< 0.1 nM
same,"IL-2 EC50 (nM), cynomolgus PBMC assay, NHP2",[1],1.24 nM
same,"IL-2 EC50 (nM), cynomolgus PBMC assay, NHP3",[1],16.5 nM
same,"IL-2 EC50 (nM), cynomolgus PBMC assay, NHP4",[1],1.23 nM
same,EC50,[7],12.4 nM
same,EC50,[8],869 nM
same,Kd,[9],~22 nM
same,EC50,[10],7180 nM
same,EC50,[11],6330 nM

# From patent US20180289802A1 (CELGENE, published 2018)
